From a collection of fitness landscapes (doi:10.1016/j.celrep.2020.107928)
Whole data set: some 81,000 sequences, median “one-hybrid fitness for binding NBS DNA” near -0.1, cut for the highest 2% near 0.36. The list shows a part of the results.

B1: Caulobacter ParB omega fusion; a variant is named by its letters at X, in order, B8GW30 (parent)
chain: MESVVVGEPGMSEGRRGLGRGLSALLGEVDAAPAQAPGEQLGGSREAPIEILQRNPDQPRRTFREEDLEDLSNSIREKGVLQPILVRPSPDTAGEYQIVAGERAWRAAQRAGLKTVPIMVRELDDLAVLEIGIIENVQRADLNVLEEALSYKVLMEKFERTQENIAQTIGKSXSHVANXMRLLXLPDEVQSYLVSGELTAXHARAIAAAADPVALAKQIIEGGLSVRETEALARKAPNLSAGKSKGGRPPRVKDTDTQALESDLSSVLGLDVSIDHRGSTGTLTITYATLEQLDDLCNRLTRGI

Variants of: B1
Assay: one-hybrid fitness for binding NBS DNA (the Noc-binding site; scaled: cognate 1, non-cognate 0); higher = stronger binding
Details: with NBS DNA site
Summary of the method: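 The reporter was HIS3, with the binding site 19 bp from the promoter, in E. coli USO used for bacterial one-hybrid selection of Caulobacter ParB libraries with four specificity codons randomised. Growth was on M9 lacking histidine, with 0.1 mM IPTG and 5 mM 3-AT, for 48 hours at 37°C. Illumina sequencing covered plasmids before and after selection; three replicate libraries were pooled and variants with under 10 reads dropped. A fitness score is the log change in variant-to-wild-type read ratio, rescaled to the cognate and non-cognate references.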

Variant	one-hybrid fitness for binding NBS DNA
GMCG	≤ 0.2
NFYV	≤ 0.2
RYLI	≤ 0.2
AFQM	≤ 0.2
HKSL	≤ 0.2
QGTE	≤ 0.2
HGNC	≤ 0.2
QMQV	≤ 0.2
ASFQ	≤ 0.2
RICN	≤ 0.2
NINA	≤ 0.2
NWQS	≤ 0.2
TTDR	≤ 0.2
QVYF	≤ 0.2
KRGS	0.353
CNTM	≤ 0.2
RTQF	≤ 0.2
RMVN	≤ 0.2
VTQS	≤ 0.2
VALP	≤ 0.2
PPCT	≤ 0.2
CVPD	≤ 0.2
RSWW	≤ 0.2
YMAC	≤ 0.2

Variant	one-hybrid fitness for binding NBS DNA
VYKR	≤ 0.2
MPGT	≤ 0.2
STTN	≤ 0.2
QTFI	≤ 0.2
MDSK	≤ 0.2
RNIM	≤ 0.2
SAHE	≤ 0.2
VSPC	≤ 0.2
FEVT	≤ 0.2
CTLT	≤ 0.2
RVYY	≤ 0.2
HYCS	≤ 0.2
EPHG	≤ 0.2
LYSL	≤ 0.2
LPAC	≤ 0.2
ELGG	≤ 0.2
PVTY	≤ 0.2
PGLC	≤ 0.2
LVDT	≤ 0.2
NECV	≤ 0.2
VMTC	≤ 0.2
QQGA	0.388
LYPK	≤ 0.2
AAEI	≤ 0.2

Variant	one-hybrid fitness for binding NBS DNA
HGTC	≤ 0.2
RQLI	≤ 0.2
RNWI	≤ 0.2
TRMT	0.256
QGKA	≤ 0.2
EYTP	≤ 0.2
AFTR	≤ 0.2
WAMS	≤ 0.2
LIHI	≤ 0.2
IQVG	≤ 0.2
TLMF	≤ 0.2
KRHM	≤ 0.2
GIAG	≤ 0.2
WVKS	≤ 0.2
HCPW	≤ 0.2
LRKH	≤ 0.2
RELI	≤ 0.2
DYHN	≤ 0.2
RNTV	≤ 0.2
KPQC	≤ 0.2
DSTK	≤ 0.2
HLVL	≤ 0.2
ANLG	≤ 0.2
SIYI	≤ 0.2

Variant	one-hybrid fitness for binding NBS DNA
PKYR	≤ 0.2
ANTL	≤ 0.2
QLSL	≤ 0.2
WYAT	≤ 0.2
CSHS	≤ 0.2
QSML	≤ 0.2
RWEN	≤ 0.2
EWAS	≤ 0.2
TLQR	≤ 0.2
LSKE	≤ 0.2
LTWE	≤ 0.2
RSEM	≤ 0.2
KMYC	≤ 0.2
AKVY	≤ 0.2
EGTV	≤ 0.2
QIYN	≤ 0.2
EIYC	≤ 0.2
GRAY	≤ 0.2
GELN	≤ 0.2
KPGV	≤ 0.2
GLEC	≤ 0.2
WLTK	≤ 0.2
IRSI	≤ 0.2
YSLM	≤ 0.2

Variant	one-hybrid fitness for binding NBS DNA
VKLA	≤ 0.2
TIVT	≤ 0.2
EEPA	≤ 0.2
VTVI	≤ 0.2
EDVN	≤ 0.2
NVSR	≤ 0.2
PYTQ	≤ 0.2
PART	≤ 0.2
TTPP	≤ 0.2
KRFY	≤ 0.2
IEGG	≤ 0.2
PQHW	≤ 0.2
THRD	≤ 0.2
SSTM	≤ 0.2
ILPR	≤ 0.2
QYSG	≤ 0.2
YRTN	≤ 0.2
TRPQ	≤ 0.2
KNPR	≤ 0.2
GTLS	≤ 0.2
QQII	≤ 0.2
QKAH	≤ 0.2
KTKG	≤ 0.2
KSEI	≤ 0.2

Variant	one-hybrid fitness for binding NBS DNA
PLLR	≤ 0.2
LYPL	≤ 0.2
QQQP	≤ 0.2
NQDS	≤ 0.2
RRRV	0.655
RTDF	≤ 0.2
SSNA	≤ 0.2
KRAM	≤ 0.2
RYWT	0.281
GQQR	≤ 0.2
YFLW	≤ 0.2
SELM	≤ 0.2
HTRQ	≤ 0.2
DQLF	≤ 0.2
CITL	≤ 0.2
RYAL	≤ 0.2
ARRR	0.31
QTPD	≤ 0.2
QMLW	≤ 0.2
DCPC	≤ 0.2
RMFW	≤ 0.2
CHMG	≤ 0.2
MVRA	≤ 0.2
LRKI	≤ 0.2

Variant	one-hybrid fitness for binding NBS DNA
RRAW	≤ 0.2
KGGT	≤ 0.2
LASG	≤ 0.2
DYVS	≤ 0.2
KEEG	≤ 0.2
QHID	≤ 0.2
IMYS	≤ 0.2
ACKT	≤ 0.2
ITCL	≤ 0.2
APKA	≤ 0.2
QAAQ	≤ 0.2
SRLW	≤ 0.2
HTNN	≤ 0.2
NMRL	≤ 0.2
GSYR	≤ 0.2
TRKL	≤ 0.2
NPHR	≤ 0.2
VIKC	≤ 0.2
LWDG	≤ 0.2
RKPQ	≤ 0.2
YQIT	≤ 0.2
YFFS	≤ 0.2
HCNI	≤ 0.2
KSKA	≤ 0.2

Variant	one-hybrid fitness for binding NBS DNA
PMIG	≤ 0.2
PMYN	≤ 0.2
CTKR	0.263
IDST	≤ 0.2
RHCA	≤ 0.2
PPRD	≤ 0.2
AAFF	≤ 0.2
TISI	≤ 0.2
LRGG	≤ 0.2
RPAA	≤ 0.2
REWI	≤ 0.2
LMKS	≤ 0.2
RLFD	≤ 0.2
LWKG	≤ 0.2
TTFR	≤ 0.2
ISCL	≤ 0.2
KLFR	≤ 0.2
CTQS	≤ 0.2
EKQR	≤ 0.2
GSDF	≤ 0.2
TISW	≤ 0.2
NDNA	≤ 0.2
MEPR	≤ 0.2
ISTR	≤ 0.2

Variant	one-hybrid fitness for binding NBS DNA
RWAE	≤ 0.2
AIHS	≤ 0.2
SQSV	≤ 0.2
RKLK	≤ 0.2
AFIM	≤ 0.2
MPSK	≤ 0.2
MSLR	≤ 0.2
RNLT	≤ 0.2
LGDI	≤ 0.2
QFCA	≤ 0.2
ENVC	≤ 0.2
GDMV	≤ 0.2
ACHA	≤ 0.2
CAPL	≤ 0.2
ILRG	≤ 0.2
NIVN	≤ 0.2
IETV	≤ 0.2
TMMG	≤ 0.2
WYER	≤ 0.2
PKHH	≤ 0.2
LTWM	≤ 0.2
GKRC	≤ 0.2
RPIK	≤ 0.2
SYNN	≤ 0.2

Variant	one-hybrid fitness for binding NBS DNA
ANDT	≤ 0.2
TNYG	≤ 0.2
TRRC	≤ 0.2
MARC	≤ 0.2
NLDK	≤ 0.2
DHSS	≤ 0.2
WCTR	≤ 0.2
PAQP	≤ 0.2
WSDL	≤ 0.2
QQEC	≤ 0.2
DSQR	≤ 0.2
DPVI	≤ 0.2
DADG	≤ 0.2
KRCC	≤ 0.2
TYPT	≤ 0.2
TTKY	≤ 0.2
SVQW	≤ 0.2
FNEI	≤ 0.2
NYTG	≤ 0.2
YWSC	≤ 0.2
VPCR	≤ 0.2
DIVG	≤ 0.2
RLFP	≤ 0.2
RCWT	0.418

Variant	one-hybrid fitness for binding NBS DNA
HGYG	≤ 0.2
AAEV	≤ 0.2
KILA	≤ 0.2
QTWD	≤ 0.2
ADPL	≤ 0.2
DGWS	≤ 0.2
PLGT	≤ 0.2
LTAF	≤ 0.2
CHTY	≤ 0.2
FPTM	≤ 0.2
IPAF	≤ 0.2
ETRH	≤ 0.2
DNRM	≤ 0.2
QPLN	≤ 0.2
AQRR	0.217
NKAY	≤ 0.2
LPNP	≤ 0.2
EIKV	≤ 0.2
RHIN	≤ 0.2
ARPY	≤ 0.2
RFHW	≤ 0.2
RELC	≤ 0.2
RRWA	0.546
VSYS	≤ 0.2

Variant	one-hybrid fitness for binding NBS DNA
YQRC	≤ 0.2
DYIT	≤ 0.2
LLKM	≤ 0.2
SMER	≤ 0.2
NKDD	≤ 0.2
EADR	≤ 0.2
TGAF	≤ 0.2
HLAA	≤ 0.2
CSQL	≤ 0.2
SISS	≤ 0.2
GPQL	≤ 0.2
IGQT	≤ 0.2
YQMF	≤ 0.2
SSYS	≤ 0.2
KTIT	≤ 0.2
AGPD	≤ 0.2
EPWV	≤ 0.2
RTNS	0.534
PLFR	≤ 0.2
DSRN	≤ 0.2
PSPC	≤ 0.2
THGE	≤ 0.2
IWPT	≤ 0.2
MLQH	≤ 0.2

Variant	one-hybrid fitness for binding NBS DNA
PCSR	≤ 0.2
MLLS	≤ 0.2
RSHQ	≤ 0.2
CRNC	≤ 0.2
TMGT	≤ 0.2
KKSG	≤ 0.2
SERC	≤ 0.2
YIDG	≤ 0.2
VMDI	≤ 0.2
QVMW	≤ 0.2
HTLK	≤ 0.2
YTWC	≤ 0.2
VHTT	≤ 0.2
QSIL	≤ 0.2
RASG	≤ 0.2
SHGW	≤ 0.2
YSPG	≤ 0.2
PRNN	≤ 0.2
